The list shows a part of the results. The full chains were built here from the parent and the listed change. Values near 0.05 are background.
B1: TEV protease; numbered along this chain (parent)
chain: MGESLFKGPRDYNPISSSICHLTNESDGHTTSLYGIGFGPFIITNKHLFRRNNGTLVVQSLHGVFKVKDTTTLQQHLVDGRDMIIIRMPKDFPPFPQKLKFREPQREERICLVTTNFQTKSMSSMVSDTSCTFPSGDGIFWKHWIQTKDGQCGSPLVSTRDGFIVGIHSASNFTNTNNYFTSVPKNFMELLTNQEAQQWVSGWRLNADSVLWGGHKVFMVKPEEPFQPVKEATQL

Variants of: B1
Assay: raw area under fraction-flipped curve 0-4 h after induction (AUC4h, not background-subtracted), DNA-recorder readout of cleavage of the substrate (dimensionless); higher = more cleavage of the substrate by the protease variant
Conditions: temperature: 34 °C; time window: 0-4 h after rhamnose induction
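Further: Bxb1 expression induced with 0.2% (w/v) L-rhamnose at OD600 near 0.5, cultures sampled hourly, flipped fraction per protease–substrate barcode pair counted by paired-end Illumina sequencing.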

Row | Variant | area with substrate ENLYFQD | area with substrate ENLYFQG | area with substrate ENLYFQL | area with substrate ENLYFQM | area with substrate ENLYFQN | area with substrate ENLYFQR | area with substrate ENLYFQS | area with substrate ENLYFQT | area with substrate ENLYFQV | area with substrate ENLYFQW | area with substrate ENLYFQY | area with substrate ENLYFQH | area with substrate ENLYFQI | area with substrate ENLYFQK | area with substrate ENLYFQP | area with substrate ENLYFQQ | area with substrate ENLYFQE | area with substrate ENLYFQF
1 | P96L | 0.075 | 0.0762 | 0.0593 | 0.0851 | 0.0734 | 0.0785 | 0.103 | 0.0573 | 0.0545 | 0.053 | 0.0728 |  |  |  |  |  |  | 
2 | G136R | 0.069 | 0.102 | 0.059 | 0.0926 | 0.0723 | 0.0632 | 0.102 | 0.0616 |  | 0.0569 | 0.0661 | 0.087 | 0.0522 | 0.0615 | 0.0629 | 0.0627 |  | 
3 | G136W | 0.0644 |  |  | 0.0682 | 0.0648 | 0.051 | 0.0976 | 0.0541 | 0.0566 | 0.0702 | 0.0629 | 0.07 | 0.0551 | 0.0656 |  |  |  | 
4 | P184V | 0.0413 |  | 0.0472 |  |  | 0.029 | 0.0797 | 0.0615 | 0.0519 | 0.0507 | 0.0678 | 0.0624 | 0.0611 | 0.056 | 0.0704 |  |  | 
5 | T192V | 0.106 |  | 0.0785 |  |  |  | 0.108 | 0.0606 |  |  |  |  |  | 0.0556 |  | 0.0505 |  | 
6 | V200A | 0.0632 |  |  | 0.0669 | 0.0625 | 0.0487 | 0.0667 | 0.0483 |  |  |  |  | 0.0569 | 0.0743 | 0.0614 |  |  | 
7 | V200L | 0.068 |  | 0.056 | 0.0815 |  | 0.0649 | 0.0817 |  | 0.0573 | 0.0799 |  | 0.062 | 0.07 |  | 0.0618 |  |  | 
8 | V200W | 0.0567 |  | 0.0649 |  |  |  | 0.063 |  |  | 0.0469 |  | 0.044 |  |  | 0.0586 |  |  | 
9 | A232T | 0.0734 |  |  |  | 0.0845 | 0.0488 | 0.115 |  |  |  |  |  | 0.0451 |  |  | 0.102 |  | 
10 | P40L |  | 0.103 | 0.0622 | 0.0592 | 0.0609 | 0.0652 | 0.0897 | 0.0576 |  | 0.0638 | 0.0694 | 0.0857 | 0.0588 | 0.0564 |  |  | 0.0647 | 
11 | L56I |  |  | 0.0658 |  |  |  | 0.0992 | 0.0947 |  | 0.0649 |  |  | 0.032 | 0.0703 |  | 0.0556 | 0.0455 | 
12 | M88D |  |  |  |  |  | 0.0496 | 0.0429 |  |  | 0.0433 | 0.0209 |  |  |  |  | 0.0619 | 0.0628 | 
13 | R160K |  | 0.0847 | 0.0607 | 0.0966 | 0.0867 | 0.0612 | 0.0948 |  | 0.0599 |  | 0.0801 | 0.0748 |  | 0.0649 |  |  | 0.0821 | 
14 | A232W |  |  |  | 0.16 | 0.0819 | 0.0508 | 0.0929 | 0.117 | 0.064 |  |  |  |  |  | 0.0519 |  | 0.0675 | 
15 | S16V |  | 0.117 | 0.0661 | 0.0827 | 0.0452 | 0.0564 | 0.107 | 0.0627 |  | 0.0648 | 0.0851 |  |  | 0.0737 | 0.056 | 0.0734 |  | 0.0672
16 | V64W |  |  | 0.0594 | 0.125 | 0.0821 | 0.0737 | 0.0995 | 0.0673 |  | 0.0737 | 0.0736 |  | 0.049 | 0.0591 |  |  |  | 0.0694
17 | P96F |  | 0.0762 | 0.0701 | 0.0784 | 0.0596 | 0.0609 | 0.0937 | 0.0606 |  |  |  |  |  | 0.0983 | 0.0566 |  |  | 0.0573
18 | P96Y |  |  | 0.0671 | 0.12 | 0.0702 |  | 0.106 | 0.0445 | 0.0683 | 0.0693 |  |  | 0.0643 | 0.059 |  |  |  | 0.0607

— the supplement of paper PMC12217912
